# Laboratory results from paper doi:10.1101/2025.04.25.650653, “Hierarchical small molecule inhibition of MYST acetyltransferases” (bioRxiv, 2025).
# “And” between values parts separate entries of the source, which are not always exact repeats. Identical values can stand only once.
# System: histone modifications in MCF-7 cells
# Experiment: Histone modification analysis by bottom-up LC-MS/MS
# Type: cell-based
# Details: for Ratio, H33_27_40 K27me1K36me1 / Ratio, H33_27_40 K27me1K36me2 / Ratio, H33_27_40 K27me1K36me3 / Ratio, H33_27_40 K27me2K36me1 / Ratio, H33_27_40 K27me3K36me1 / Ratio, H33_27_40 K36me1 / Ratio, H33_27_40 K36me2 / Ratio, H33_27_40 unmod: KSAPSTGGVKKPHR(H33_27_40)
# Source text: In this approach. […] Histones are then extracted from cell pellets and chemically derivatized with propionic anhydride, digested with trypsin, subjected to a second round of propionylation, and analyzed by LC-MS/MS. Measuring the relative intensity of modified versus unmodified forms of individual histone peptides enables simultaneous monitoring of multiple potential biomarkers of MYST inhibition. To minimize false positives, we focused on abundant and reproducible modifications (average stoichiometry of greater than 1% across triplicate samples, standard deviation less than or equal to the average measurement). To account for potential histone modification crosstalk, changes in both acetylated and methylated peptides were evaluated. 38 modified peptides passed this reproducible detection threshold including several established KAT biomarkers[41] including H3K9Ac (KAT2A/B), H3K18Ac (KAT3A/B), H3K14Ac (KAT7), H3K23Ac (KAT6A/B), H4K16Ac (KAT8), and H2A.ZK4/K7Ac (KAT5; Fig. 4B).
# Histone modification analysis
# MCF-7 cells were cultured at 37 °C under 5% CO2 in EMEM (Quality Biological, 112-016-101) with 0.01 mg/mL human recombinant insulin (Sigma Aldrich, 91077C), 2 mM L-glutamine (Quality Biological, 118- […]
# human recombinant insulin.
# 1119, WM-3835). Following 24 h inhibitor treatment, cells were washed with ice-cold 1× PBS and scraped in 150 µL of Nuclear Isolation Buffer (NIB) containing 0.1% NP-40 for histone extraction using a modified protocol from the Garcia laboratory. 9 Briefly, cell suspensions were incubated on ice for 5 minutes, and […]
# nuclei were pelleted by centrifugation (600 rcf, 4°C, 5 min). Pelleted nuclei were washed twice with 150 μL of detergent-free NIB buffer, followed by centrifugation (600 rcf, 4°C, 5 min) to remove all detergent.
# Nuclei were then resuspended in 400 μL of 0.4 N H₂SO₄ and rotated at 4°C overnight for acid extraction of histones. The following day, samples were centrifuged (11,000 rcf, 4°C, 10 min) and the histone-containing supernatant was transferred to a fresh tube. Trichloroacetic acid (100% TCA) was added to achieve a final concentration of 20% (v/v), tubes were inverted once to mix, and histone precipitation was performed on ice for at least 3 hours or overnight at 4°C. Precipitated histones were collected by centrifugation (11,000 rcf, 4°C, 10 min) and the supernatant carefully removed, leaving a visible film of histones on the tube wall or bottom. Histone pellets were subjected to sequential washes with 1 mL of ice-cold acidified acetone (0.1% 12 N HCl) followed by 1 mL of 100% ice-cold acetone, with centrifugation (11,000 rcf, 4°C, 5 min) after each wash. Samples were air-dried at room temperature, resuspended in 40 µL of ddH₂O, and protein […]
# analysis, 1-2 µg of purified histones were loaded per lane and processed according to the general immunoblotting protocol described in General Materials and Methods.
# Analysis of histone modifications by LC-MS/MS
# Preparation of histone samples for LC-MS/MS was performed analogously to the procedure for immunoblotting above, with the following modifications. MCF7 cells (4.2 × 106) were seeded in 15 cm dishes and treated with PF-9363 or vehicle. Experiments were performed in triplicate. Following treatment and PBS washing, cells were scraped and collected in 15 mL falcon tubes, pelleted (500 rcf, 4°C, 5 min), resuspended in 1 mL cold PBS, transferred to microcentrifuge tubes, and pelleted again before flash-freezing in liquid nitrogen for storage at -80°C. For extraction, cell pellets (~100 μL) were resuspended in NIB buffer at a 1:10 ratio, and cells were lysed with NIB buffer containing 0.2% NP-40 for 8 minutes on ice. Nuclei were pelleted at 1,000 rcf for 8 minutes and washed three times with 500 μL detergent-free NIB buffer. Histones were extracted using 800 μL of 0.2 M H₂SO₄, and after centrifugation (3,400 rcf, 4°C, 10
# [1] = KSTGGKAPR(H3_9_17), PF-9363 0.1 v 30
# [2] = KSTGGKAPR(H3_9_17), dose 0.1, Replicates 1-3
# [3] = KSTGGKAPR(H3_9_17), dose 1, Replicates 1-3
# [4] = KSTGGKAPR(H3_9_17), dose 10, Replicates 1-3
# [5] = KSTGGKAPR(H3_9_17), dose 30, Replicates 1-3
smiles,measurement,setting,value
COc1cccc(OC)c1S(=O)(=O)Nc1noc2cc(Cn3cccn3)cc(OC)c12 [PF-9363],"Ratio, H33_27_40 K27me1K36me1","dose 0.1, Replicates 1-3",0.03105 and 0.01991 and 0.0237
same,"Ratio, H33_27_40 K27me1K36me2","dose 0.1, Replicates 1-3",0.1197 and 0.1193 and 0.1112
same,"Ratio, H33_27_40 K27me1K36me3","dose 0.1, Replicates 1-3",0.04514 and 0.04439 and 0.04142
same,"Ratio, H33_27_40 K27me2K36me1","dose 0.1, Replicates 1-3",0.1405 and 0.1382 and 0.1214
same,"Ratio, H33_27_40 K27me3K36me1","dose 0.1, Replicates 1-3",0.01845 and 0.01684 and 0.0146
same,"Ratio, H33_27_40 K36me1","dose 0.1, Replicates 1-3",0.0294 and 0.02308 and 0.01488
same,"Ratio, H33_27_40 K36me2","dose 0.1, Replicates 1-3",0.08428 and 0.1024 and 0.06371
same,"Ratio, H33_27_40 unmod","dose 0.1, Replicates 1-3",0.03417 and 0.02411 and 0.03004
same,"Ratio, H33_27_40 K27me1K36me1","dose 1, Replicates 1-3",0.03073 and 0.02819 and 0.0383
same,"Ratio, H33_27_40 K27me1K36me2","dose 1, Replicates 1-3",0.1247 and 0.1111 and 0.1213
same,"Ratio, H33_27_40 K27me1K36me3","dose 1, Replicates 1-3",0.04601 and 0.04253 and 0.04376
same,"Ratio, H33_27_40 K27me2K36me1","dose 1, Replicates 1-3",0.1533 and 0.1272 and 0.1444
same,"Ratio, H33_27_40 K27me3K36me1","dose 1, Replicates 1-3",0.0193 and 0.01632 and 0.01877
same,"Ratio, H33_27_40 K36me1","dose 1, Replicates 1-3",0.03026 and 0.01971 and 0.04202
same,"Ratio, H33_27_40 K36me2","dose 1, Replicates 1-3",0.01554 and 0.01779 and 0.006701
same,"Ratio, H33_27_40 unmod","dose 1, Replicates 1-3",0.03545 and 0.03942 and 0.04333
same,"Ratio, H33_27_40 K27me1K36me1","dose 10, Replicates 1-3",0.02576 and 0.02348 and 0.03374
same,"Ratio, H33_27_40 K27me1K36me2","dose 10, Replicates 1-3",0.1108 and 0.1087 and 0.1092
same,"Ratio, H33_27_40 K27me1K36me3","dose 10, Replicates 1-3",0.0403 and 0.03824 and 0.04147
same,"Ratio, H33_27_40 K27me2K36me1","dose 10, Replicates 1-3",0.141 and 0.1627 and 0.1276
same,"Ratio, H33_27_40 K27me3K36me1","dose 10, Replicates 1-3",0.0177 and 0.02076 and 0.01377
same,"Ratio, H33_27_40 K36me1","dose 10, Replicates 1-3",0.03075 and 0.02408 and 0.03247
same,"Ratio, H33_27_40 unmod","dose 10, Replicates 1-3",0.02969 and 0.03143 and 0.03433
same,"Ratio, H33_27_40 K27me1K36me2","dose 30, Replicates 1-3",0.1264 and 0.1323 and 0.1144
same,"Ratio, H33_27_40 K27me1K36me3","dose 30, Replicates 1-3",0.04365 and 0.04705 and 0.04027
same,"Ratio, H33_27_40 K27me2K36me1","dose 30, Replicates 1-3",0.1338 and 0.1968 and 0.193
same,"Ratio, H33_27_40 K27me3K36me1","dose 30, Replicates 1-3",0.01979 and 0.01784 and 0.0196
same,"Ratio, H33_27_40 K36me1","dose 30, Replicates 1-3",0.02263 and 0.02698 and 0.02541
same,"Ratio, H33_27_40 K36me2","dose 30, Replicates 1-3",0.07884 and 0.0484 and 0.03683
same,"Ratio, H33_27_40 unmod","dose 30, Replicates 1-3",0.05134 and 0.05555 and 0.03758
same,"Fold-change 0.1 v 30, H3_9_17 K9me1",[1],0.60
same,"Fold-change 0.1 v 30, H3_9_17 unmod",[1],0.84
same,"Ratio, H3_9_17 K9me1",[2],0.0627 and 0.06086 and 0.06234
same,"Ratio, H3_9_17 unmod",[2],0.1551 and 0.1517 and 0.1473
same,"Ratio, H3_9_17 K9me1",[3],0.09513 and 0.07619 and 0.08786
same,"Ratio, H3_9_17 unmod",[3],0.1856 and 0.163 and 0.1825
same,"Ratio, H3_9_17 K9me1",[4],0.07501 and 0.08781 and 0.08267
same,"Ratio, H3_9_17 unmod",[4],0.1748 and 0.1913 and 0.1844
same,"Ratio, H3_9_17 K9me1",[5],0.113 and 0.09659 and 0.09797
same,"Ratio, H3_9_17 unmod",[5],0.1888 and 0.1674 and 0.1816
same,change of exclusively methylated histone peptides,"MCF-7 cells, 24 h, 0.1-30 μM",No exclusively methylated peptides were significantly changed
same,"Ratio, H2A1_1_11 K5ac","PF-9363 0.1, Replicates 1-3",0.7579 and 0.8858 and 0.9126
same,"Ratio, H2A1_4_11 K5ac","PF-9363 0.1, Replicates 1-3",0.04777 and 0.02277 and 0.05587
same,"Ratio, H2A1_4_11 K9ac","PF-9363 0.1, Replicates 1-3",0.03233 and 0.06167 and 0.02731
same,"Ratio, H2A1_4_11 unmod","PF-9363 0.1, Replicates 1-3",0.9133 and 0.8999 and 0.9064
same,"Ratio, H2A1_36_42 unmod","PF-9363 0.1, Replicates 1-3",0.9989 and 0.9996 and 0.9988
same,"Ratio, H2A3_36_42 unmod","PF-9363 0.1, Replicates 1-3",1
same,"Ratio, H2AJ_4_11 K5acK9ac","PF-9363 0.1, Replicates 1-3",0.9051 and 0.8313 and 0.8743
same,"Ratio, H2AV_1_19 K4ac","PF-9363 0.1, Replicates 1-3",0.05734 and 0.02419 and 0.03954
same,"Ratio, H2AV_1_19 unmod","PF-9363 0.1, Replicates 1-3",0.8773 and 0.9119 and 0.8859
same,"Ratio, H2AX_4_11 unmod","PF-9363 0.1, Replicates 1-3",0.2967 and 0.2834 and 0.276
same,"Ratio, H2AX_36_42 unmod","PF-9363 0.1, Replicates 1-3",1
same,"Ratio, H2AZ_1_19 unmod","PF-9363 0.1, Replicates 1-3",0.876 and 0.8713 and 0.8714
